# According to PubChem BioAssay AID493208 (National Center for Advancing Translational Sciences (NCATS), 2011):
# About 340 (0.77%) of roughly 44,000 compounds were called active. Another 5% or so got no clear call; they are omitted. Calls come from the whole dose curve; as a rule, active = well fitted inhibition curve with a large enough effect; inconclusive = small, poorly fitted or top-dose-only effect; inactive = flat fitted curve, though single readings scatter. Some of the results follow.
# Test: Acumen qHTS Assay for Inhibitors of the mTORC1 Signaling Pathway in MEF (Tsc2-/-, p53-/-) Cells: Sytravon;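 note: plate controls were DMSO for no effect and rapamycin for full effect; nearly all actives have a fitted effect of over 50% in size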
# Details: phospho-rpS6 immunofluorescence/PI, 24 h; series mostly up to 38.3 µM; activity change, negative = inhibition: at the top concentration
# Method in brief: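 Read-out: phospho-S6 Alexa-488 intensity over PI intensity per well, scored as % active cells using thresholds from rapamycin (7.5 nM) and DMSO controls. Tsc2-/-, p53-/- MEFs exposed to compound for 24 h; PI cell count recorded as viability.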
row,SMILES,"activity change, negative = inhibition"
1,Cc1cc(C)c(NC(=O)Cn2nnc(-c3ccccc3)n2)c(C)c1,inactive: -0.822%
2,Cc1cc(S(=O)(=O)NCC(c2ccco2)S(=O)(=O)c2ccccc2)ccc1F (stereo not given),inactive: -4.3%
3,CCOC(=O)C(C)NC(=O)C1CCN(c2ncnc3c2nc2n3CCCCC2)CC1 (stereo not given),inactive: -5.51%
4,O=C(CN1CCCN(Cc2ccccc2Cl)S1(=O)=O)NCc1ccccc1,inactive: -3.79%
5,Cc1cccn2c(=O)cc(COc3cccc(NC(=O)COc4ccc(F)cc4)c3)nc12,inactive: 12.5%
6,CCc1nnc(NC(=O)C(=O)c2cc(C)n(-c3ccccc3)c2C)s1,inactive: 0%
7,CC(C)N(Cc1ccccc1)C(=O)Cn1ncc2c([nH]c3ccccc32)c1=O,inactive: -0.174%
8,O=C(CSc1nc2c([nH]c3ccccc32)c(=O)n1-c1ccc(Cl)cc1)N1CCOCC1,inactive: 2.76%
9,CCC1CCCCN1CC(=O)Nc1cc(C)c2c(=O)oc3ccccc3c2n1 (stereo not given),inactive: -22.6%
10,Cc1ccc(NC(=O)N2CCC(c3ccccc3)C2)cc1C (stereo not given),inactive: -7.92%
11,Cc1ccc(-c2nonc2NC(=O)c2ccc(F)cc2)cc1C,inactive: 0.335%
12,Cc1cccc(NC(=O)CSc2c(C)cnc3c2c(=O)n(C)c(=O)n3C)c1C,inactive: -0.174%
13,O=S(=O)(NCC(c1ccco1)N1CCOCC1)c1cc(F)ccc1F (stereo not given),inactive: 0.534%
14,CCc1nn(C(CC)C(=O)NCc2ccc(F)cc2)c(=O)c2cc3occc3n12 (stereo not given),inactive: 1.63%
15,COc1cc(C(=O)NCC(c2ccco2)S(=O)(=O)c2ccccc2)cc(OC)c1OC (stereo not given),inactive: 3.92%
16,O=C(CCc1ccccc1)N(Cc1cccnc1)c1nc2c(F)cccc2s1,inactive: -4.98%
17,CCCOc1ccc(C(=O)N(Cc2ccc(N(C)C)cc2)CC2CCCO2)cc1 (stereo not given),inactive: -0.435%
18,CC1=C(C(=O)Nc2ccccc2)C(CC(C)C)n2nc(SCc3ccccc3C)nc2N1 (stereo not given),inactive: -1.61%
19,O=C(c1cc2c(s1)-c1ccccc1OC2)N1CCN(c2ccccc2)CC1,inactive: -1.07%
20,Cc1ccc(C(=O)Nc2ccc(OCc3cc(=O)n4c(C)csc4n3)cc2)cc1,inactive: 1.77%
21,CCCN(CCC)CCCNC(=O)Cn1ncc2c3ccccc3n(Cc3ccccc3)c2c1=O,inactive: 1.69%
22,Cc1ccc(NC(=O)Cc2csc(C)n2)c(C)c1,inactive: 2.75%
23,Cc1cccc(NC(=O)CSc2nncn2C)c1,inactive: 3.57%
24,Cc1ccc(Nc2c(-c3ccc(O)cc3)nc3cccc(C)n23)cc1,inactive: 5.68%
25,Cc1nc(-c2ccc(Cl)cc2)sc1CCNC(=O)c1cccs1,inactive: -0.711%

row,SMILES,"activity change, negative = inhibition"
1,CCCOc1ccc(-c2nc(SC)[nH]c(=O)c2C#N)cc1OC,inactive: -4.15%
2,CCN(CC)CCN(C(=O)c1ccco1)c1nc2ccc(Br)cc2s1,inactive: -0.736%
3,CC(=O)Nc1nonc1-c1nnc(SCC(=O)Nc2cc(C)cc(C)c2)n1-c1ccccc1,inactive: 0.0268%
4,Cc1ccc(S(=O)(=O)c2c(Nc3cc(F)ccc3F)sc(C(=O)c3ccc(F)cc3)c2N)cc1,inactive: -9.4%
5,O=C(c1ccc2c(c1)N(Cc1ccccc1)C(=O)c1ccccc1S2(=O)=O)N1CCCCCC1,inactive: 0.984%
6,CC(C)(C)c1ccc(Oc2nc3ccccn3c(=O)c2/C=C(\C#N)c2nc3ccccc3s2)cc1,inactive: -20.2%
7,CCc1ccc(NC(=O)CC2C(=O)N(c3ccc(C)cc3)C(=O)N2C2CCCC2)cc1 (stereo not given),inactive: -7.27%
8,COc1ccc2c(c1)CCc1sc(NC(=O)c3ccc(Br)cc3)nc1-2,inactive: 4.62%
9,CN(C)c1oc(-c2ccc(COc3ccccc3)o2)nc1C#N,inactive: -12.5%
10,COc1ccc(N2CCN(S(=O)(=O)CCNC(=O)c3cc(=O)c4ccccc4o3)CC2)cc1,inactive: 4.92%
11,COc1cc(NC(=O)Cn2ccn(-c3cc(C)cc(C)c3)c(=O)c2=O)cc(OC)c1,inactive: 10.5%
12,Cc1cc(C)cc(NC(=O)CSc2nc(=O)[nH]c3c2CCC3)c1,inactive: -10.7%
13,CC(C)CN(CCNC(=O)c1cn(C)c2ccc(S(=O)(=O)N3CCCCCC3)cc2c1=O)CC(C)C,inactive: -0.443%
14,Cc1cc(C)cc(NC(=O)CSc2nc3ncccc3[nH]2)c1,inactive: -13.1%
15,Cc1ccc(NC(=O)C(=O)NCC(c2ccc3c(c2)OCO3)N2CCN(C)CC2)c(C)c1 (stereo not given),inactive: 0.472%
16,Cc1ccc(NC(=O)C(Cc2ccccc2)NS(=O)(=O)c2ccc3c(c2)CCC(=O)N3)cc1 (stereo not given),inactive: 1.18%
17,CS(=O)(=O)c1cccc(-c2nnc(NC(=O)c3ccc4c(c3)OCCO4)o2)c1,inactive: 2.22%
18,CCOC(=O)N1CCC(NC(=O)c2cnn(-c3ccc(C)cc3C)c2C2CCN(C(=O)OC(C)(C)C)CC2)CC1,inactive: 1.88%
19,CC(=O)Nc1cccc(Nc2nc3ccccc3n3c(C)nnc23)c1,inactive: 7.84%
20,O=C(CN1CCCN(Cc2ccc(F)cc2)S1(=O)=O)Nc1ccc2c(c1)OCCO2,inactive: 0%
21,CC(=O)c1nn(-c2ccc(OC(F)(F)F)cc2)nc1Nc1ccccc1,inactive: 4.91%
22,CCc1nn(CCCC(=O)NCc2ccc(C)cc2)c(=O)c2cc3occc3n12,inactive: -8.1%
23,CCCN(CCC)CCCNC(=O)Cn1ncc2c3ccccc3n(Cc3ccccc3F)c2c1=O,inactive: -12%
24,CCOc1ccccc1N(C)C(=O)Cn1nc(Cc2ccncc2)c2ccccc2c1=O,inactive: -1.74%
25,COc1ccccc1C(=O)OCc1cc(=O)n2nc(-c3cccs3)sc2n1,inactive: -14%
